Hit rate of the full screen: of about 310,000 compounds, about 14,000 (4.5%) showed an effect of 50% or more. The effect is printed as a negative number. Some of the results follow.
The compounds below were run against human ether-à-go-go-related gene (hERG) potassium channel (human, UniProt Q12809) (assay: primary screen, population patch clamp on CHO cells stably expressing hERG).
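Note: peak tail current of the secondary pulse compared with the same well before compound.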

Sequence of human ether-à-go-go-related gene (hERG) potassium channel (Q12809 whole entry, looked up): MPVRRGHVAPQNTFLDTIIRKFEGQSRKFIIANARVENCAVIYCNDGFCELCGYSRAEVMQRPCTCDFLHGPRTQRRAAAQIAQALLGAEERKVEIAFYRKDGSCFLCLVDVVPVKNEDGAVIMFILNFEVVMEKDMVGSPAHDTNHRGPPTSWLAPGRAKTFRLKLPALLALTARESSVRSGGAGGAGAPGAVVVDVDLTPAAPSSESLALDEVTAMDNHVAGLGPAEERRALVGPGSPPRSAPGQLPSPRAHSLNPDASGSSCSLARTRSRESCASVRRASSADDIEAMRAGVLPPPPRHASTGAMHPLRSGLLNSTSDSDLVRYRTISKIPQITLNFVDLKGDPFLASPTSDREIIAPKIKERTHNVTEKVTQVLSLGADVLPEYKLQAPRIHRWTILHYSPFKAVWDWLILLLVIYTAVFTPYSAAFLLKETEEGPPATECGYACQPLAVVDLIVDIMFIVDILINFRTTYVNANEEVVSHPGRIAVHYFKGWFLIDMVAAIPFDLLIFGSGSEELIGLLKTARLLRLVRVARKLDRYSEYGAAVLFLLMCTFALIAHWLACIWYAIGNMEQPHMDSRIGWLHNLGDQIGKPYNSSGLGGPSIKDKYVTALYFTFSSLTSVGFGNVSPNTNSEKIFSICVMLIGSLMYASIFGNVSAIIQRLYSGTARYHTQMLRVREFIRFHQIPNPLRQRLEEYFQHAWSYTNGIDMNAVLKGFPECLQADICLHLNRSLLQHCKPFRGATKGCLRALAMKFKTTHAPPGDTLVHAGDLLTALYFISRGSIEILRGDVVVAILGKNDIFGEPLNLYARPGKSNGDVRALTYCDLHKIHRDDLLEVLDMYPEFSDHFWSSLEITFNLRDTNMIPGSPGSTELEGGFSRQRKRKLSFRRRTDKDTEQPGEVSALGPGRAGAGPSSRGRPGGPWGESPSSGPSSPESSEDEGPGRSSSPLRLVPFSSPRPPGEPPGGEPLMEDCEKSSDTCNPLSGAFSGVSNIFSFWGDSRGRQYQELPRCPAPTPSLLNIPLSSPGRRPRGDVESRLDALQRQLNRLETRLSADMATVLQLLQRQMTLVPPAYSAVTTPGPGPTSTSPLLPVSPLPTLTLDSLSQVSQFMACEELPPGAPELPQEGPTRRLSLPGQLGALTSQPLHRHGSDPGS

Compared with `COc1ccc(C2Nc3ccccc3C(=O)N2c2ccc(C)cc2)cc1Cn1nnc2ccccc21` (stereo not shown), `O=C(NCc1nc2ccccc2[nH]1)C1=C[C@H](c2ccc(C(F)(F)F)cc2)C[C@H](OCc2ccc(CO)cc2)O1` is higher in “hERG current change (%, negative = inhibition) at 10uM” value: -5.66% for the first, 9.06% for the second.

Going from `COc1ccccc1NC(=S)NCc1ccco1` to `S=C(NCCc1cccc(Cl)c1)NCc1ccccc1`, the “hERG current change (%, negative = inhibition) at 10uM” value falls from -9.3% to -9.71%.

Going from `CCOC(=O)N/N=C(\C)c1ccc(C)o1` to `CCOC(=O)CNCCC(=O)c1ccc(Br)cc1`, the “hERG current change (%, negative = inhibition) at 10uM” value falls from 21.1% to -11.6%.

First: CCSc1nnc(NC(=O)CSc2nnc(CNC(=O)c3ccc(OC)cc3)o2)s1
Second: CCCn1c(SCC(=O)NNC(=O)c2ccc(OC)cc2)nnc1C(C)C
The “hERG current change (%, negative = inhibition) at 10uM” value of the first is lower: 2.97% for the first, 20.6% for the second.

Compared with `Cc1noc(C)c1S(=O)(=O)N(CCc1ccccc1)Cc1ccccc1`, `CCOC(=O)CCP(=O)(O)C(O)(c1ccccc1)c1ccccc1` is higher in “hERG current change (%, negative = inhibition) at 10uM” value: -4% for the first, 0.636% for the second.

Compared with `Cc1cc(C)c(NC(=O)Cn2nnc(C(=O)NCc3cccs3)c2N)c(C)c1`, `Cc1cc(C)c2c(c1)/C(=C/C(=O)c1ccc(Br)s1)C(=O)N2` is higher in “hERG current change (%, negative = inhibition) at 10uM” value: 20% for the first, 26% for the second.

First: Cc1ccc(C(=O)O)c(C(=O)Nc2nc3ccccc3s2)c1
Second: CCOC(=O)NNC(=O)c1[nH]c2ccc(Br)cc2c1-c1ccccc1
The “hERG current change (%, negative = inhibition) at 10uM” value of the first is lower: -0.925% for the first, 4.86% for the second.

First: O=C(c1ccco1)N(CCO)Cc1cc2cc3c(cc2[nH]c1=O)OCO3
Second: Cc1ccc(NC(=O)c2ccc3c(c2)OCCO3)cc1C
The “hERG current change (%, negative = inhibition) at 10uM” value of the first is higher: 18.5% for the first, -10.4% for the second.

Going from `COc1ccc(/C(O)=C2/C(=O)C(=O)N(CCN3CCOCC3)C2c2ccccn2)cc1` (stereo not shown) to `CCOc1ccc(C(=O)C2CCN(CC(=O)Nc3ccccc3N3CCOCC3)CC2)cc1`, the “hERG current change (%, negative = inhibition) at 10uM” value falls from 0.566% to -53.6%.

Going from `O=C(NCCc1ccccc1)c1nc2nc(-c3cccs3)cc(C(F)(F)F)n2n1` to `CCCCNc1c(-c2cccc(-c3cc(C(C)=O)cs3)c2)nc2cc(C)ccn12.O=C(O)C(F)(F)F`, the “hERG current change (%, negative = inhibition) at 10uM” value rises from -45.5% to -18.2%.

First: O=C(OCCN(CCOC(=O)c1ccncc1)S(=O)(=O)c1cccs1)c1ccncc1
Second: COC(=O)CCCNC(=O)c1ccc(OS(=O)(=O)c2cc([N+](=O)[O-])ccc2C)cc1
The “hERG current change (%, negative = inhibition) at 10uM” value of the first is lower: -77.3% for the first, -3.31% for the second.

Going from `CCN(CC)S(=O)(=O)c1ccc(N2CCOCC2)c(NC(=O)CCOc2ccccc2)c1` to `CCOc1ccccc1NC(=O)N1CCCc2ccccc21`, the “hERG current change (%, negative = inhibition) at 10uM” value rises from -36.9% to 3.14%.

Compared with `O=C(CCN1C(=O)C2C3C=CC(C4CC34)C2C1=O)Oc1ccc(Br)cc1` (stereo not shown), `CC1CCCN(C(=O)CCNS(=O)(=O)c2ccc(Br)cc2)C1` (stereo not shown) is lower in “hERG current change (%, negative = inhibition) at 10uM” value: 20.4% for the first, -32.2% for the second.

First: Cc1ccsc1C1CC(=O)OC2=C1C(=O)CC(C)(C)C2 (stereo not shown)
Second: CCOC(=O)C1=C(COC(=O)c2ccc(C)s2)NC(=O)NC1C (stereo not shown)
The “hERG current change (%, negative = inhibition) at 10uM” value of the first is higher: 2.08% for the first, -5.32% for the second.

Going from `COCCn1c(SCc2nc3ccccc3c(=O)[nH]2)nc2ccccc2c1=O` to `CN(C(=O)CSc1nc(C2CC2)nc2ccccc12)c1nc(-c2ccccc2)cs1`, the “hERG current change (%, negative = inhibition) at 10uM” value rises from -23.7% to 2.14%.

Going from `COc1ccc(CCNC(=O)C2CCN(S(=O)(=O)N3CCOCC3)CC2)cc1OC` to `COC(=O)C1=C(c2cccc(C#N)c2)C[C@@H]2CC[C@H]1N2C(=O)N1CCOCC1`, the “hERG current change (%, negative = inhibition) at 10uM” value rises from -11% to 6.41%.

Going from `CC(C)(C)CC(C)(C)NC1=CC(=O)OC12CCCCC2` to `Cc1cc(C)nc(N2CCCC(C(=O)Nc3nnc(C(C)(C)C)s3)C2)n1` (stereo not shown), the “hERG current change (%, negative = inhibition) at 10uM” value rises from 10.4% to 19.6%.

First: CSc1ccc(CCCCCCOC(=O)C(C)(C)C)cc1
Second: CCOC(=O)C1(CCOc2ccccc2)CCN(Cc2ccc(C#CCCO)cc2)CC1
The “hERG current change (%, negative = inhibition) at 10uM” value of the first is higher: 3.95% for the first, -53.3% for the second.

Going from `C/C(Cl)=C\Cn1c(Nc2ccccc2)nc2c1c(=O)n(C)c(=O)n2C` to `CC1(c2ccc3ccccc3c2)NC(=O)N(CC(N)=O)C1=O` (stereo not shown), the “hERG current change (%, negative = inhibition) at 10uM” value rises from 1.86% to 15.5%.

First: O=C(COc1cccc2c1CCN(Cc1ccccc1F)C2=O)N1CCCCC1
Second: CCCn1cc(S(=O)(=O)CC(=O)NC2CCCCC2)c2ccccc21
The “hERG current change (%, negative = inhibition) at 10uM” value of the first is lower: -43.4% for the first, -2.51% for the second.

Compared with `COc1cc(/C=N\NC(=O)C2COc3ccccc3O2)cc(OC)c1O` (stereo not shown), `COc1ccccc1OCCOc1ccc(/C=C2\C(=N)N3N=C(S(C)(=O)=O)SC3=NC2=O)cc1` is higher in “hERG current change (%, negative = inhibition) at 10uM” value: -23.3% for the first, 12% for the second.

First: C=CCn1c(-c2ccc(F)cc2)n[nH]c1=S
Second: CC1=C(C(=O)N2CCOCC2)C(c2ccc(O)cc2)NC(=S)N1 (stereo not shown)
The “hERG current change (%, negative = inhibition) at 10uM” value of the first is higher: 25.3% for the first, 18.5% for the second.

First: O=C(O)CC1C(=O)NCCN1C/C=C/c1ccccc1 (stereo not shown)
Second: O=C(CSc1nnc(Nc2ccccc2)s1)NCC1CCCO1 (stereo not shown)
The “hERG current change (%, negative = inhibition) at 10uM” value of the first is higher: 6.2% for the first, -1.51% for the second.

Going from `O=C1CCCN1c1ccc(S(=O)(=O)NCc2ccc(F)cc2)cc1` to `CC(Oc1cc(F)ccc1[N+](=O)[O-])C(=O)N(C)CC(=O)Nc1ccccc1C(F)(F)F` (stereo not shown), the “hERG current change (%, negative = inhibition) at 10uM” value rises from 2.94% to 6.24%.

Going from `Cc1nc(N2CCN(C(=O)c3ccco3)CC2)nc2c1C(=O)CCC2` to `CCN(CCO)c1nc(SC)nc2c1sc1nc(-c3ccco3)c3c(c12)CCC3`, the “hERG current change (%, negative = inhibition) at 10uM” value falls from 2.17% to 2.11%.

Compared with `CC1CCN(CCCN2C(=O)C3C(C(=O)Nc4ccc(Cl)cc4)C4C=CC3(O4)C2C(=O)NC2CCCCC2)CC1` (stereo not shown), `O=C(N/C(=N\O)c1ccccc1)Nc1ccc(Cl)cc1` is higher in “hERG current change (%, negative = inhibition) at 10uM” value: -34.5% for the first, -27.7% for the second.

Compared with `CCOC(=O)Cc1csc(NC(=O)CSc2nnc(-c3ccc(NS(=O)(=O)CC)cc3)o2)n1`, `O=C(NNc1nc(-c2ccccc2)cs1)c1cccs1` is higher in “hERG current change (%, negative = inhibition) at 10uM” value: -3.35% for the first, 10.7% for the second.

For `COc1ccc(C(=O)/C=C/c2cccs2)c(OC(=O)N2CCOCC2)c1`, the “hERG current change (%, negative = inhibition) at 10uM” value was -2.94%.

From PMC4336329 (PLoS ONE, 2015)
